This is one part of the list.
Tested on: PfAP2-HC AP2 domain (GST-tagged)
Test: gcPBM binding intensity (ln(normalized median fluorescence intensity)); higher = stronger DNA binding
Summary of the method: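 Each value is the highest Masliner-normalised natural-log median intensity across replicate spots of either orientation of a probe. The probes were primer-extended double-stranded 36-bp intergenic genomic sequences on an Agilent 4 × 180k array, alongside negative controls, exposed for 1 h to GST-tagged P. falciparum DNA-binding domains expressed in E. coli. Bound protein was picked up with Alexa488 anti-GST antibody and scanned at 488 nm.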

In order of rising “gcPBM binding intensity (ln)” value:
1. AATTTTCTTAAAATTTGTACGTATATATTTAATATA [XGTACX_site3906]  9.36
2. ATATACTTTAAAGGTTAAGAAAGAAAAAAAAAAAAA [CACACA_negctrl_site956]  9.37
3. TTTCATGACAATGTTTGTACATAATAAAATATATTT [XGTACX_site7039]  9.38
4. TATAAACATATCATATGTACATATATTTTTATAAAA [XGTACX_site8882]  9.38
5. TTATTATAAAAATGTAGTACAATACTTTTTTTTTTT [XGTACX_site732]  9.39
6. TTTGTTTTATCTTATATGCACACGATAAAAAAAAAA [CACACA_site2673]  9.39
7. TTTTTTTTTTTTTGATGTACTTATTTAATAAGATAT [XGTACX_site376]  9.4
8. TAATTATTTTAAAAAGTGCATTAAAAGATATTAAAT [GTGCAC_site9694]  9.46
9. TATAAAATAAAAGTAAATATATATATATATATATAT [TGCATGCA_negctrl_site208]  9.47
10. GTTATACATTTTGATTGTACATAAACCATTTGAGCA [XGTACX_site7283]  9.48
11. ATAAATTTCCTCGTTTTTTTTTTTTTTTTTTTTTTT [CACACA_negctrl_site1173]  9.48
12. TTTTTTTAAAAAAAGGGTACATATATATATTTTTCT [XGTACX_site1066]  9.5
13. TGATAATTTCATTTTGCATGTGACAATACAAGATGT [TGCATGCA_site203]  9.5
14. TATGTAGGTAAAAATTGTACTTTTTTTTTAATATTT [XGTACX_site2303]  9.51
15. TTTGACATACCTCTTGCATGTGAAAAACTTTTCGCT [TGCATGCA_site364]  9.52
16. AAAAAAGACCATGTTAGTACATAAGATTTTTTTCAT [XGTACX_site4298]  9.53
17. TTTTTTTTTTCTTTTTGTACATATTCATAACAAGTA [XGTACX_site2784]  9.53
18. AAAAGGAAAGGAAAGGGTACAATCCTATTATATTAT [XGTACX_site8652]  9.56
19. AAGAAAAAATAAAAAATAAAAATAAAAAATAAAAAA [TGCATGCA_negctrl_site274]  9.56
20. ATCCAAAAAATTAATGCATGCGCAAAAAATAGCTTA [TGCATGCA_site615]  9.57
21. AATACGTTATTATTTTGTACATATAAATAATAAGTT [XGTACX_site815]  9.58
22. ATGGACTTTTATAGTTGTACATACTATGAGAACTTT [XGTACX_site2800]  9.59
23. ATATAGCATATAATTTGTACACAGGCCATACCTGAA [XGTACX_site533]  9.59
24. ATATATCAAAATAATTGTACAAATTTTATATAATTT [XGTACX_site7249]  9.6
25. ATATATATTATATAGTGTACCTATGTATAATAATAT [XGTACX_site1683]  9.61
26. TAACTCTATTTTTTTGCATGCTGAAGCTATGAGTTT [TGCATGCA_site821]  9.61
27. ATATATAATATTTATTGTACTATTTTATTTTTATAA [XGTACX_site705]  9.62
28. TAAGGATGAATCCTTTGTACATATATATATATATAT [XGTACX_site1242]  9.64
29. ACTCTTTTAACGCAAAGTACTTTTTAAAATATTTCG [XGTACX_site7534]  9.65
30. AATGCATACACATATTGTACTAAGCCATACAACACA [XGTACX_site305]  9.65
31. TTTAACGTTGAATATACACACATATATATATATATA [CACACA_site3698]  9.66
32. ATATGTATCTCATCGTGTACATGTATATAATATATA [XGTACX_site4139]  9.68
33. TATATATTTCATAATACACACGAAAAAAAAAAAAAA [CACACA_site8972]  9.68
34. TTAGAAAAATTATATATACACACTTATATTTATATA [CACACA_site2821]  9.69
35. ATTTCTATTTGGGTTAGTACATATAAGTCTATTTTC [XGTACX_site3234]  9.69
36. GAGTTCAGTTTTTGTTGTACTTATTCTTAATATGTC [XGTACX_site6083]  9.69
37. ATATATTTTTGTAGTGTGCACGTTTATATGGTGAAA  9.69
38. ATATATATATATTATATGCACACGTTAAAATTTCAT [CACACA_site709]  9.7
39. TTCTAGAAAACTGATCGTACAAATAAATATAGACAC [XGTACX_site2808]  9.7
40. AATGGTTCAACGTAGTGTACGTAATAAATAATAAAT [XGTACX_site8668]  9.7
41. TATAATATTTACGACAGTACATATATATATATGTAT [XGTACX_site8332]  9.73
42. TGAATAAATATAAAAGGTACACATATAAATATATAT [XGTACX_site6349]  9.74
43. TATTATATATATATCACACATATATTCATGTACATA [CACACA_site5432]  9.79
44. AAATAATATGTAATCAAATTCACCAAACGAAAAAAA [TGCATGCA_negctrl_site33]  9.79
45. ATTATATGTAACACGTGTACCTATTTATGTATGCTT [XGTACX_site5748]  9.79
46. AATATACAAAATATCACACATATAAAATAATATATA [CACACA_site6067]  9.8
47. ACAAAAAAATAAGGTGCACACAAAAAAAAAAAAAAA [CACACA_site8171]  9.8
48. AACATACGAATATTCACACATAAATATATAAATCGC [CACACA_site4672]  9.81
49. ATATATATATATATATGTACACATATTATAAAAAAA [XGTACX_site8644]  9.81
50. TGAAAAGAAAACACATGTACAAATATATAAATATAA [XGTACX_site6098]  9.81
51. CAAGAAATTTACAAACGTACATATGTTCATACAAGG [XGTACX_site2372]  9.81
52. GTCATATATAATTGTTGTACATTTTTATAATTATGT [XGTACX_site8091]  9.83
53. ATAATATTATGTGTGAATATATCTTTAAAAAGGATA [GTGCAC_negctrl_site15]  9.83
54. AGATGATATACGTAAACACACAAATAAAAAAAATTT [CACACA_site3327]  9.83
55. TTAAAAAGATGTCACTGTACATAAAACATAAAATAT [XGTACX_site2886]  9.85
56. AAAAAATTATATTATGCACACATCGTTATATATATA [CACACA_site1201]  9.86
57. GAAGAGACTTAGAAAACACACATACATAAGATAATT [CACACA_site5333]  9.87
58. ATAAAAATAAAATAAGGTACAGACGAAAAAATTGAA [XGTACX_site5097]  9.87
59. AAAATAGGGATCACGTGTACATATAAAGTGACATAC [XGTACX_site8190]  9.88
60. TGACATAATGTGTGTAGTACATATATCGTTATTTGA [XGTACX_site5152]  9.91
61. TAAAATAAATTGTGCACACATATTTATAAATATGAA [CACACA_site2331]  9.91
62. TTTATATATATTCTCACACACTTTTTATTTTAACAA [CACACA_site4534]  9.92
63. ATATAGTAAAGTTATACACACATGAATTTTCCCATG [CACACA_site6923]  9.94
64. ATATATTTACATATTACACACAATATTGTACACATA [CACACA_site6564]  9.94
65. TATATATATAAATACACACACACCGTCCGTGTTAAA [CACACA_site5623]  9.96
66. GATATATAAACATATACACACAAAAACATATTTATA [CACACA_site6734]  9.96
67. AAAAAAAAAAAAAAAACACACATAAAACTATAATAA [CACACA_site7758]  9.98
68. GTTTATCACAGCCACGCACACATAATATATGTATAT [CACACA_site3669]  9.98
69. TATATATCTATAAACACACACCAAAATTTGTGCTTT [CACACA_site7448]  9.99
70. ATATATTATAATGATACACACAAGAAATAAAATTAC [CACACA_site3095]  10
71. GAATAAATAAGATACGTACACACATATACAAAATAT [CACACA_site3660]  10.1
72. ATAATATAAACGTATACACACAAGAGAAGCATAAAG [CACACA_site2889]  10.1
73. AAATAAAAAGAAAAGAAAAAGAAAATAAAAAGAGAA [XGTACX_negctrl_site14]  10.1
74. CTTATACATATATATAGTACATATATCATTTTTATG [XGTACX_site4462]  10.1
75. AATATAAATGTGATTACACACAACACATTTAAATGT [CACACA_site1212]  10.1
76. TATATGGCATATTTCACACACACATAATGAATATTA [CACACA_site9181]  10.1
77. TTTTTTTAAATATACACACACATTTATACATATATA [CACACA_site3400]  10.1
78. AAAAATATTTATAACACACACATAATATTTATATAT [CACACA_site7238]  10.1
79. TAAACAGACATATAAACACACATACATACATACATA [CACACA_site7215]  10.2
80. TATATATACTATAACACACATACACCCAAAAAAAAA [CACACA_site536]  10.2
81. TGTCCTTATTTGCACACACACATATAAGAAATTTAA [CACACA_site7485]  10.2
82. ATAAAATGAACAAACACACACACATATATTTATATA [CACACA_site7181]  10.4
83. TATATAATCGAGTGCACACACAAAAAAAAAGTGAAC [CACACA_site1483]  10.4
84. CACAAAAATAGACACACACACATATAAATAAATATA [CACACA_site6598]  10.4
85. TATTGCCCGAAACACACACACATATATATATATATA [CACACA_site2491]  10.4
86. AAATAATTTGTTGACACACACACACCCATACATATA [CACACA_site2285]  10.7
87. AAAAAAAAAACATACACACACATATATATATATATG [CACACA_site1586]  10.7
88. GTATTACATGAGGACACACACAAAAAAAATATATAT [CACACA_site769]  10.8
89. TACATATAAAAGTACACACACACACCCATATATATA [CACACA_site941]  11

Source: the supplement of paper PMC11417369
